Test results from the supplement of paper PMC12217912.
The other results are listed elsewhere or left out. The full chains were built here from the parent and the listed change. Inactive controls read about 0.05.

B1: TEV protease; numbered along this chain (parent)
chain: MGESLFKGPRDYNPISSSICHLTNESDGHTTSLYGIGFGPFIITNKHLFRRNNGTLVVQSLHGVFKVKDTTTLQQHLVDGRDMIIIRMPKDFPPFPQKLKFREPQREERICLVTTNFQTKSMSSMVSDTSCTFPSGDGIFWKHWIQTKDGQCGSPLVSTRDGFIVGIHSASNFTNTNNYFTSVPKNFMELLTNQEAQQWVSGWRLNADSVLWGGHKVFMVKPEEPFQPVKEATQL

Variants of: B1
Assay: raw area under fraction-flipped curve 0-4 h after induction (AUC4h, not background-subtracted), DNA-recorder readout of cleavage of the substrate (dimensionless); higher = more cleavage of the substrate by the protease variant
Conditions: temperature: 34 °C; time window: 0-4 h after rhamnose induction
Method: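 In vivo DNA recorder in E. coli TOP10(DE3) ΔrhaA at 34 °C. Each TEVp single-site mutant (parent TEVp 0) is paired with a single-site variant of the 7-mer TEVs (canonical ENLYFQ|S). The substrate sits between flexible linkers in a Bxb1-sfGFP-TEVs-SsrA fusion, so cleavage stabilises Bxb1 and speeds flipping of a recombination array, read by NGS. The value is the raw area under the fraction-flipped curve over 0-4 h after rhamnose induction (AUC4h), with ≥20 reads per time point. It is not background-subtracted; inactive controls average about 0.047.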
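Also: Bxb1 expression induced with 0.2% (w/v) L-rhamnose at OD600 near 0.5, cultures sampled hourly, flipped fraction per protease–substrate barcode pair counted by paired-end Illumina sequencing.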

Row | Variant | area with substrate ENAYFQS | area with substrate ENCYFQS | area with substrate ENDYFQS | area with substrate ENEYFQS | area with substrate ENFYFQS | area with substrate ENGYFQS | area with substrate ENHYFQS | area with substrate ENIYFQS | area with substrate ENKYFQS | area with substrate ENPYFQS | area with substrate ENQYFQS | area with substrate ENRYFQS | area with substrate ENSYFQS | area with substrate ENTYFQS | area with substrate ENVYFQS | area with substrate ENWYFQS | area with substrate ENNYFQS | area with substrate ENMYFQS | area with substrate ENYYFQS
1 | MGESLFKGPRDYNPISSSICHLTNESDGHTTSLYGIGFGPFIITNKHLFRRNNGTLVVQSLHGVFKVKDTTTLQQHLVDGRDMIIIRMPKDFPPFPQKLKFREPQREIRICLVTTNFQTKSMSSMVSDTSCTFPSGDGIFWKHWIQTKDGQCGSPLVSTRDGFIVGIHSASNFTNTNNYFTSVPKNFMELLTNQEAQQWVSGWRLNADSVLWGGHKVFMVKPEEPFQPVKEATQL [E108I] | 0.0646 | 0.047 | 0.0445 | 0.06 | 0.039 | 0.0592 | 0.062 | 0.0686 | 0.0451 | 0.0673 | 0.0564 | 0.0419 | 0.0463 | 0.056 | 0.0523 | 0.05 | – | – | –
2 | MGESLFKGPRDYNPISSSICHLTNESDGHTTSLYGIGFGPFIITNKHLFRRNNGTLVVQSLHGVFKVKDTTTLQQHLVDGRDMIIIRMPKDFPPFPQKLKFREPQRESRICLVTTNFQTKSMSSMVSDTSCTFPSGDGIFWKHWIQTKDGQCGSPLVSTRDGFIVGIHSASNFTNTNNYFTSVPKNFMELLTNQEAQQWVSGWRLNADSVLWGGHKVFMVKPEEPFQPVKEATQL [E108S] | 0.0496 | 0.0497 | – | 0.0556 | – | 0.0591 | – | – | – | – | 0.0478 | 0.0495 | 0.0584 | – | 0.0752 | 0.0591 | 0.0624 | – | –
3 | MGESLFKGPRDYNPISSSICHLTNESDGHTTSLYGIGFGPFIITNKHLFRRNNGTLVVQSLHGVFKVKDTTTLQQHLVDGRDMIIIRMPKDFPPFPQKLKFREPQREVRICLVTTNFQTKSMSSMVSDTSCTFPSGDGIFWKHWIQTKDGQCGSPLVSTRDGFIVGIHSASNFTNTNNYFTSVPKNFMELLTNQEAQQWVSGWRLNADSVLWGGHKVFMVKPEEPFQPVKEATQL [E108V] | 0.0607 | – | 0.0497 | 0.0578 | 0.0568 | 0.0572 | 0.0606 | – | 0.0673 | 0.0523 | 0.0507 | 0.0581 | 0.0579 | 0.0497 | 0.0565 | – | 0.0543 | 0.0876 | 0.0457
4 | MGESLFKGPRDYNPISSSICHLTNESDGHTTSLYGIGFGPFIITNKHLFRRNNGTLVVQSLHGVFKVKDTTTLQQHLVDGRDMIIIRMPKDFPPFPQKLKFREPQREEHICLVTTNFQTKSMSSMVSDTSCTFPSGDGIFWKHWIQTKDGQCGSPLVSTRDGFIVGIHSASNFTNTNNYFTSVPKNFMELLTNQEAQQWVSGWRLNADSVLWGGHKVFMVKPEEPFQPVKEATQL [R109H] | 0.0485 | – | 0.0639 | 0.0549 | 0.0484 | 0.0549 | – | 0.121 | 0.096 | 0.0436 | – | 0.0626 | – | 0.0656 | – | 0.055 | 0.0579 | – | –
5 | MGESLFKGPRDYNPISSSICHLTNESDGHTTSLYGIGFGPFIITNKHLFRRNNGTLVVQSLHGVFKVKDTTTLQQHLVDGRDMIIIRMPKDFPPFPQKLKFREPQREERMCLVTTNFQTKSMSSMVSDTSCTFPSGDGIFWKHWIQTKDGQCGSPLVSTRDGFIVGIHSASNFTNTNNYFTSVPKNFMELLTNQEAQQWVSGWRLNADSVLWGGHKVFMVKPEEPFQPVKEATQL [I110M] | 0.0406 | 0.0542 | 0.0558 | 0.0644 | 0.0538 | 0.061 | – | 0.0698 | – | 0.0509 | 0.0621 | 0.0592 | 0.0777 | 0.0523 | 0.0645 | – | 0.0679 | 0.0638 | 0.0416
6 | MGESLFKGPRDYNPISSSICHLTNESDGHTTSLYGIGFGPFIITNKHLFRRNNGTLVVQSLHGVFKVKDTTTLQQHLVDGRDMIIIRMPKDFPPFPQKLKFREPQREERQCLVTTNFQTKSMSSMVSDTSCTFPSGDGIFWKHWIQTKDGQCGSPLVSTRDGFIVGIHSASNFTNTNNYFTSVPKNFMELLTNQEAQQWVSGWRLNADSVLWGGHKVFMVKPEEPFQPVKEATQL [I110Q] | 0.0493 | 0.0573 | – | 0.0502 | 0.0524 | – | 0.065 | – | – | – | – | – | 0.0441 | 0.0455 | – | – | 0.0239 | 0.0551 | 0.0619
7 | MGESLFKGPRDYNPISSSICHLTNESDGHTTSLYGIGFGPFIITNKHLFRRNNGTLVVQSLHGVFKVKDTTTLQQHLVDGRDMIIIRMPKDFPPFPQKLKFREPQREERIILVTTNFQTKSMSSMVSDTSCTFPSGDGIFWKHWIQTKDGQCGSPLVSTRDGFIVGIHSASNFTNTNNYFTSVPKNFMELLTNQEAQQWVSGWRLNADSVLWGGHKVFMVKPEEPFQPVKEATQL [C111I] | 0.0581 | 0.0649 | – | 0.0598 | 0.0764 | – | 0.0549 | 0.0955 | 0.0661 | 0.0684 | 0.0659 | 0.0635 | 0.0562 | – | 0.0755 | 0.0049 | 0.0624 | – | 0.0667
8 | MGESLFKGPRDYNPISSSICHLTNESDGHTTSLYGIGFGPFIITNKHLFRRNNGTLVVQSLHGVFKVKDTTTLQQHLVDGRDMIIIRMPKDFPPFPQKLKFREPQREERICLATTNFQTKSMSSMVSDTSCTFPSGDGIFWKHWIQTKDGQCGSPLVSTRDGFIVGIHSASNFTNTNNYFTSVPKNFMELLTNQEAQQWVSGWRLNADSVLWGGHKVFMVKPEEPFQPVKEATQL [V113A] | 0.064 | 0.0662 | 0.049 | 0.0582 | 0.0584 | – | – | 0.105 | – | – | 0.0588 | – | 0.057 | – | 0.0733 | – | 0.0486 | 0.0578 | 0.0475
9 | MGESLFKGPRDYNPISSSICHLTNESDGHTTSLYGIGFGPFIITNKHLFRRNNGTLVVQSLHGVFKVKDTTTLQQHLVDGRDMIIIRMPKDFPPFPQKLKFREPQREERICLVPTNFQTKSMSSMVSDTSCTFPSGDGIFWKHWIQTKDGQCGSPLVSTRDGFIVGIHSASNFTNTNNYFTSVPKNFMELLTNQEAQQWVSGWRLNADSVLWGGHKVFMVKPEEPFQPVKEATQL [T114P] | 0.056 | 0.0481 | 0.0531 | – | 0.0695 | – | 0.0608 | 0.0922 | 0.0616 | – | 0.0567 | 0.0569 | 0.0498 | – | – | 0.0363 | – | – | –
